# Reference: the supplement of paper PMC8728848
# The list shows a part of the results.
# B1: AT1G73650(15) (Arabidopsis thaliana), F4HRY1 (protein)
# chain: MGTVLDSHFLALTAIVTVIYQFIFFVITALFKFDQVTDFAGSTNFVILAVLTLVLKASWHFRQIVLTLLVVVWGLRLGIFLLMETRILQWGEDRRFDEQRGNIVRLIIFWTLQAVWVWTVSLPLTLVNASDGGGSLKPADVIGWTMETWVFGFLIEAAADQQKLSFKNSPENRGKWCDVGVWKYSRHPNYFGEMETLLWWGIFVAASPVLEGAEYLVIFGPLFLTLLLLFVSGIPLLEASADKKHGNSGAYRSYKKTTSPLILFPRGVYGNLPGWFKTVFLFEFPFYSRNLPQEGRLQNSKEKEVKDD
# What was measured:
# Test in all cases: glycan array binding signal (z-score within array); higher = stronger binding
# Settings in all cases: glycan notation: IUPAC condensed, linker removed
# [1] = target: Gal(b1-4)GlcNAc(b1-2)[Gal(b1-4)GlcNAc(b1-6)]Man(a1-6)[Gal(b1-4)GlcNAc(b1-2)Man(a1-3)]Man(b1-4)GlcNAc(b1-4)[Fuc(a1-6)]GlcNAc
# In short: (§1)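 The binding signal is a Z-score computed within each array and averaged over linkers. Arrays of the same protein sequence at different concentrations or buffers were also averaged together. Data originate from 3228 arrays in the Consortium for Functional Glycomics database, kept only where the protein sequence was available.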
# [2] = target: Gal(b1-4)GlcNAc(b1-2)[Gal(b1-4)GlcNAc(b1-6)]Man(a1-6)[GlcNAc(b1-4)][Gal(b1-4)GlcNAc(b1-2)Man(a1-3)]Man(b1-4)GlcNAc(b1-4)GlcNAc
# In short: as §1
# [3] = target: Gal(b1-4)GlcNAc(b1-2)[Gal(b1-4)GlcNAc(b1-6)]Man(a1-6)[GlcNAc(b1-4)][Gal(b1-4)GlcNAc(b1-2)[Gal(b1-4)GlcNAc(b1-4)]Man(a1-3)]Man(b1-4)GlcNAc(b1-4)[Fuc(a1-6)]GlcNAc
# In short: as §1
# [4] = target: Gal(b1-4)GlcNAc(b1-3)Gal(b1-3)GalNAc
# In short: as §1
# [5] = target: Gal(b1-4)GlcNAc(b1-3)Gal(b1-3)GlcNAc
# In short: as §1
# [6] = target: Gal(b1-4)GlcNAc(b1-3)Gal(b1-4)Glc
# In short: as §1
# [7] = target: Gal(b1-4)GlcNAc(b1-3)Gal(b1-4)GlcNAc
# In short: as §1
# [8] = target: Gal(b1-4)GlcNAc(b1-3)Gal(b1-4)GlcNAc(b1-2)Man(a1-3)[Gal(b1-4)GlcNAc(b1-3)Gal(b1-4)GlcNAc(b1-2)Man(a1-6)]Man(b1-4)GlcNAc(b1-4)GlcNAc
# In short: as §1
# [9] = target: Gal(b1-4)GlcNAc(b1-3)Gal(b1-4)GlcNAc(b1-2)Man(a1-3)[Gal(b1-4)GlcNAc(b1-3)Gal(b1-4)GlcNAc(b1-2)Man(a1-6)]Man(b1-4)GlcNAc(b1-4)[Fuc(a1-6)]GlcNAc
# In short: as §1
# [10] = target: Gal(b1-4)GlcNAc(b1-3)Gal(b1-4)GlcNAc(b1-2)[Gal(b1-4)GlcNAc(b1-3)Gal(b1-4)GlcNAc(b1-6)]Man(a1-6)[Gal(b1-4)GlcNAc(b1-3)Gal(b1-4)GlcNAc(b1-2)Man(a1-3)]Man(b1-4)GlcNAc(b1-4)GlcNAc
# In short: as §1
# [11] = target: Gal(b1-4)GlcNAc(b1-3)Gal(b1-4)GlcNAc(b1-2)[Gal(b1-4)GlcNAc(b1-3)Gal(b1-4)GlcNAc(b1-6)]Man(a1-6)[Gal(b1-4)GlcNAc(b1-3)Gal(b1-4)GlcNAc(b1-2)Man(a1-3)]Man(b1-4)GlcNAc(b1-4)[Fuc(a1-6)]GlcNAc
# In short: as §1
# [12] = target: Gal(b1-4)GlcNAc(b1-3)Gal(b1-4)GlcNAc(b1-3)Gal(b1-4)GlcNAc
# In short: as §1
# [13] = target: Gal(b1-4)GlcNAc(b1-3)Gal(b1-4)GlcNAc(b1-3)Gal(b1-4)GlcNAc(b1-2)Man(a1-3)[Gal(b1-4)GlcNAc(b1-3)Gal(b1-4)GlcNAc(b1-3)Gal(b1-4)GlcNAc(b1-2)Man(a1-6)]Man(b1-4)GlcNAc(b1-4)GlcNAc
# In short: as §1
# [14] = target: Gal(b1-4)GlcNAc(b1-3)Gal(b1-4)GlcNAc(b1-3)Gal(b1-4)GlcNAc(b1-2)Man(a1-3)[Gal(b1-4)GlcNAc(b1-3)Gal(b1-4)GlcNAc(b1-3)Gal(b1-4)GlcNAc(b1-2)Man(a1-6)]Man(b1-4)GlcNAc(b1-4)[Fuc(a1-6)]GlcNAc
# In short: as §1
# [15] = target: Gal(b1-4)GlcNAc(b1-3)Gal(b1-4)GlcNAc(b1-3)Gal(b1-4)GlcNAc(b1-2)[Gal(b1-4)GlcNAc(b1-3)Gal(b1-4)GlcNAc(b1-3)Gal(b1-4)GlcNAc(b1-6)]Man(a1-6)[Gal(b1-4)GlcNAc(b1-3)Gal(b1-4)GlcNAc(b1-3)Gal(b1-4)GlcNAc(b1-2)Man(a1-3)]Man(b1-4)GlcNAc(b1-4)[Fuc(a1-6)]GlcNAc
# In short: as §1
# [16] = target: Gal(b1-4)GlcNAc(b1-3)Gal(b1-4)GlcNAc(b1-3)Gal(b1-4)GlcNAc(b1-3)Gal(b1-4)GlcNAc(b1-2)Man(a1-3)[Gal(b1-4)GlcNAc(b1-3)Gal(b1-4)GlcNAc(b1-3)Gal(b1-4)GlcNAc(b1-3)Gal(b1-4)GlcNAc(b1-2)Man(a1-6)]Man(b1-4)GlcNAc(b1-4)GlcNAc
# In short: as §1
# [17] = target: Gal(b1-4)GlcNAc(b1-3)Gal(b1-4)GlcNAc(b1-3)Gal(b1-4)GlcNAc(b1-3)Gal(b1-4)GlcNAc(b1-2)Man(a1-3)[Gal(b1-4)GlcNAc(b1-3)Gal(b1-4)GlcNAc(b1-3)Gal(b1-4)GlcNAc(b1-3)Gal(b1-4)GlcNAc(b1-2)Man(a1-6)]Man(b1-4)GlcNAc(b1-4)[Fuc(a1-6)]GlcNAc
# In short: as §1
# [18] = target: Gal(b1-4)GlcNAc(b1-3)Gal(b1-4)GlcNAc(b1-3)Gal(b1-4)GlcNAc(b1-3)Gal(b1-4)GlcNAc(b1-2)[Gal(b1-4)GlcNAc(b1-3)Gal(b1-4)GlcNAc(b1-3)Gal(b1-4)GlcNAc(b1-3)Gal(b1-4)GlcNAc(b1-6)]Man(a1-6)[Gal(b1-4)GlcNAc(b1-3)Gal(b1-4)GlcNAc(b1-3)Gal(b1-4)GlcNAc(b1-3)Gal(b1-4)GlcNAc(b1-2)Man(a1-3)]Man(b1-4)GlcNAc(b1-4)[Fuc(a1-6)]GlcNAc
# In short: as §1
# [19] = target: Gal(b1-4)GlcNAc(b1-3)Gal(b1-4)GlcNAc(b1-3)Gal(b1-4)GlcNAc(b1-3)Gal(b1-4)GlcNAc(b1-3)Gal(b1-4)GlcNAc(b1-2)Man(a1-3)[Gal(b1-4)GlcNAc(b1-3)Gal(b1-4)GlcNAc(b1-3)Gal(b1-4)GlcNAc(b1-3)Gal(b1-4)GlcNAc(b1-3)Gal(b1-4)GlcNAc(b1-2)Man(a1-6)]Man(b1-4)GlcNAc(b1-4)GlcNAc
# In short: as §1
# [20] = target: Gal(b1-4)GlcNAc(b1-3)Gal(b1-4)GlcNAc(b1-3)Gal(b1-4)GlcNAc(b1-3)Gal(b1-4)GlcNAc(b1-3)Gal(b1-4)GlcNAc(b1-2)Man(a1-3)[Gal(b1-4)GlcNAc(b1-3)Gal(b1-4)GlcNAc(b1-3)Gal(b1-4)GlcNAc(b1-3)Gal(b1-4)GlcNAc(b1-3)Gal(b1-4)GlcNAc(b1-2)Man(a1-6)]Man(b1-4)GlcNAc(b1-4)[Fuc(a1-6)]GlcNAc
# In short: as §1
# [21] = target: Gal(b1-4)GlcNAc(b1-3)Gal(b1-4)GlcNAc(b1-3)Gal(b1-4)GlcNAc(b1-3)Gal(b1-4)GlcNAc(b1-3)Gal(b1-4)GlcNAc(b1-2)[Gal(b1-4)GlcNAc(b1-3)Gal(b1-4)GlcNAc(b1-3)Gal(b1-4)GlcNAc(b1-3)Gal(b1-4)GlcNAc(b1-3)Gal(b1-4)GlcNAc(b1-6)]Man(a1-6)[Gal(b1-4)GlcNAc(b1-3)Gal(b1-4)GlcNAc(b1-3)Gal(b1-4)GlcNAc(b1-3)Gal(b1-4)GlcNAc(b1-3)Gal(b1-4)GlcNAc(b1-2)Man(a1-3)]Man(b1-4)GlcNAc(b1-4)[Fuc(a1-6)]GlcNAc
# In short: as §1
# [22] = target: Gal(b1-4)GlcNAc(b1-3)Gal(b1-4)GlcNAc(b1-3)Gal(b1-4)GlcNAc(b1-3)Gal(b1-4)GlcNAc(b1-3)Gal(b1-4)GlcNAc(b1-3)Gal(b1-4)GlcNAc(b1-2)Man(a1-3)[Gal(b1-4)GlcNAc(b1-3)Gal(b1-4)GlcNAc(b1-3)Gal(b1-4)GlcNAc(b1-3)Gal(b1-4)GlcNAc(b1-3)Gal(b1-4)GlcNAc(b1-3)Gal(b1-4)GlcNAc(b1-2)Man(a1-6)]Man(b1-4)GlcNAc(b1-4)GlcNAc
# In short: as §1
# [23] = target: Gal(b1-4)GlcNAc(b1-3)Gal(b1-4)GlcNAc(b1-3)GalNAc
# In short: as §1
# [24] = target: Gal(b1-4)GlcNAc(b1-3)Gal(b1-4)GlcNAc(b1-3)[Gal(b1-4)GlcNAc(b1-3)Gal(b1-4)GlcNAc(b1-6)]GalNAc
# In short: as §1
# [25] = target: Gal(b1-4)GlcNAc(b1-3)Gal(b1-4)GlcNAc(b1-6)[Gal(b1-3)]GalNAc
# In short: as §1
# [26] = target: Gal(b1-4)GlcNAc(b1-3)Gal(b1-4)[Fuc(a1-3)]GlcNAc(b1-3)Gal(b1-4)[Fuc(a1-3)]GlcNAc
# In short: as §1
# [27] = target: Gal(b1-4)GlcNAc(b1-3)GalNAc
# In short: as §1
# [28] = target: Gal(b1-4)GlcNAc(b1-3)[Fuc(a1-3)GlcNAc(b1-6)]Gal(b1-4)Glc
# In short: as §1
# [29] = target: Gal(b1-4)GlcNAc(b1-3)[Gal(b1-4)GlcNAc(b1-6)]Gal(b1-4)GlcNAc
# In short: as §1
# [30] = target: Gal(b1-4)GlcNAc(b1-3)[GlcNAc(b1-6)]Gal(b1-4)GlcNAc
# In short: as §1
# [31] = target: Gal(b1-4)GlcNAc(b1-6)Gal(b1-4)GlcNAc
# In short: as §1
# [32] = target: Gal(b1-4)GlcNAc(b1-6)GalNAc
# In short: as §1
# [33] = target: Gal(b1-4)GlcNAc(b1-6)[Gal(b1-3)]GalNAc
# In short: as §1
# [34] = target: Gal(b1-4)GlcNAc(b1-6)[Gal(b1-4)GlcNAc(b1-3)]GalNAc
# In short: as §1
# Gal(b1-4)GlcNAc6P = target: Gal(b1-4)GlcNAc6P
# In short: as §1
# Gal(b1-6)Gal = target: Gal(b1-6)Gal
# In short: as §1
# Gal3S(b1-3)GalNAc = target: Gal3S(b1-3)GalNAc
# In short: as §1
# Gal3S(b1-3)GlcNAc = target: Gal3S(b1-3)GlcNAc
# In short: as §1
binder,measurement,setting,value
B1,glycan array binding signal (z-score),[1],1.65
same,glycan array binding signal (z-score),[2],-0.494
same,glycan array binding signal (z-score),[3],-0.179
same,glycan array binding signal (z-score),[4],0.81
same,glycan array binding signal (z-score),[5],-0.512
same,glycan array binding signal (z-score),[6],1.93
same,glycan array binding signal (z-score),[7],1.92
same,glycan array binding signal (z-score),[8],-0.01
same,glycan array binding signal (z-score),[9],-0.555
same,glycan array binding signal (z-score),[10],-0.267
same,glycan array binding signal (z-score),[11],0.506
same,glycan array binding signal (z-score),[12],-0.503
same,glycan array binding signal (z-score),[13],-0.044
same,glycan array binding signal (z-score),[14],-0.186
same,glycan array binding signal (z-score),[15],0.335
same,glycan array binding signal (z-score),[16],-0.376
same,glycan array binding signal (z-score),[17],1.83
same,glycan array binding signal (z-score),[18],-0.173
same,glycan array binding signal (z-score),[19],-0.096
same,glycan array binding signal (z-score),[20],0.369
same,glycan array binding signal (z-score),[21],-0.381
same,glycan array binding signal (z-score),[22],-0.416
same,glycan array binding signal (z-score),[23],-0.447
same,glycan array binding signal (z-score),[24],-0.543
same,glycan array binding signal (z-score),[25],0.182
same,glycan array binding signal (z-score),[26],-0.65
same,glycan array binding signal (z-score),[27],-0.577
same,glycan array binding signal (z-score),[28],-0.732
same,glycan array binding signal (z-score),[29],-0.463
same,glycan array binding signal (z-score),[30],-0.319
same,glycan array binding signal (z-score),[31],-0.461
same,glycan array binding signal (z-score),[32],1.54
same,glycan array binding signal (z-score),[33],0.371
same,glycan array binding signal (z-score),[34],-0.029
same,glycan array binding signal (z-score),Gal(b1-4)GlcNAc6P,0.323
same,glycan array binding signal (z-score),Gal(b1-6)Gal,-0.043
same,glycan array binding signal (z-score),Gal3S(b1-3)GalNAc,-0.498
same,glycan array binding signal (z-score),Gal3S(b1-3)GlcNAc,0.044
